The source of these data is the supplement of paper PMC3334620.

Whole data set: some 33,000 sequences, median “E-score (-0.5 to 0.5)” near -0.016, cut for the highest 2% near 0.32. Some of the results follow.

The test concerns the target T1, Stp1 (UniProt B3LFK1).
T1 sequence: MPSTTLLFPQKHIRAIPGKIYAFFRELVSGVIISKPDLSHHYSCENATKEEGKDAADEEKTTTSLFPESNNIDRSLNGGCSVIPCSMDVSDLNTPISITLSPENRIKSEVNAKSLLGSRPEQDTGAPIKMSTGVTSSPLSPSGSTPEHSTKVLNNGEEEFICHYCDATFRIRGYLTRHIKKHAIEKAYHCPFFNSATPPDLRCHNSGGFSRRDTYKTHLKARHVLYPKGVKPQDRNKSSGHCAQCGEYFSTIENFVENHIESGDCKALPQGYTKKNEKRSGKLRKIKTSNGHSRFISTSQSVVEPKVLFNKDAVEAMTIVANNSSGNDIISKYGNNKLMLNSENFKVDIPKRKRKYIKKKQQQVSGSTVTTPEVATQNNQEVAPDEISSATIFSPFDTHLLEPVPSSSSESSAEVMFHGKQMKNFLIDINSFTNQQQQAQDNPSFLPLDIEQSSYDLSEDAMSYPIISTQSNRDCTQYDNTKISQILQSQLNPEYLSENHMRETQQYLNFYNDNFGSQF
Briefly: PBM E-score (8-mer binding enrichment) (E-score (-0.5 to 0.5)); higher = stronger / more preferred TF binding; most listed sequences are background and not binding sites. Particulars: protein concentration: 200 nM; construct: GST-full length. An outline of the steps:
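Using PURExpress in vitro transcription/translation, GST-tagged yeast transcription factors were made in full-length or DNA-binding-domain form. These were applied at about 100-200 nM to double-stranded universal all-10-mer Agilent arrays, and bound protein was detected with fluorescent anti-GST. Scans were normalised with masliner before the Universal PBM Analysis Suite assigned E-scores to ungapped eight-base words pooled with their reverse complements.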
Take AGCCTTAG: the “PBM E-score” value turned out to be 0.096.
For AGGTGTGC, the “PBM E-score” value is -0.0377.
The value for ACATTATG was 0.0757; that for ATAGTGGC was -0.0666.
The value for ATAGGGGG was -0.349; that for AGTGGAGA was -0.0407; that for CTCACGAC was -0.128.
Regarding AAGGCTGG, the “PBM E-score” value is -0.295.
Under CCCAAAAG stands -0.0623; under AGTCTGGC, -0.207.
Under CGAACATC stands -0.0281.
Regarding GTCCCAGA, the “PBM E-score” value is -0.209.
The value for ACGACAGT was -0.00493.
In the case of AATACTCA, the “PBM E-score” value stood at 0.227.
The value for TACGCGCA was 0.139.
The value for GATCCTTA was -0.093.
The value for AATACGGT was 0.0778.
Turning to GAACTCTC, the “PBM E-score” value is -0.248.
Under CTGGATCC stands -0.0441; under AGAAGGCG, 0.2; under GGGTGGGA, -0.15.
The value for CCGCCGTA was 0.42; that for GCGCCTAC was 0.35; that for CTGTGACC was -0.192.
Under CCCGTGGA stands -0.0712; under CCCCCCAA, -0.234.
Regarding GAGGAACA, the “PBM E-score” value was -0.00245.
Under ATGCGCTG stands -0.258; under ATTACTTG, 0.0514.
The value for ACACGCAT was -0.0369; that for CACCAAAC was 0.149.
Under CCTTGGTC stands -0.131; under CTATAGAG, -0.224; under CGCCACGC, 0.253.
With CGTGTAAA, the “PBM E-score” value is 0.0915.
For AAAAGCTC, the “PBM E-score” value was -0.131.
Regarding GTGACCAC, the “PBM E-score” value is -0.13.
The value for CCTAGACC was -0.2.
CTACCATA: the “PBM E-score” value was -0.0605.
With TAGCAAAA, the “PBM E-score” value was 0.111.
On to AACCAGGA, for which the “PBM E-score” value is -0.121.
On to ACCAGTTG, for which the “PBM E-score” value was -0.0174.
The value for ACTACTAA was 0.037; that for CCCGGTAA was -0.117; that for AATCTTTA was 0.0281.
Under CTAGTCTA stands -0.109.
The value for TCCCTGAA was -0.0599; that for AAATTCGT was 0.23.
For the sequence AACTCTAT, the “PBM E-score” value was -0.0127.
Under CTCGATAC stands 0.0352.
Under AAGTGTAT stands 0.0442; under AGCAAAAG, 0.0579.
As to CCTAGAAA, the “PBM E-score” value is -0.113.
Turning to AGGTTTTA, the “PBM E-score” value was -0.0167.
The value for CAATATGC was 0.0141.
Regarding ATCGCGTC, the “PBM E-score” value was -0.0915.
The value for CGCTCCTA was -0.0592; that for ACTTGACT was -0.179; that for CGATTGCC was 0.212.
The value for CGCCGCAA was 0.421; that for AGTGCACG was 0.0422.
As for CAGGATGA, the “PBM E-score” value is -0.228.
Under TGTAAAAA stands 0.0355; under AACGCTGA, 0.00122.
The value for TACTTAAA was -0.0622.
Turning to CGCAGGAA, the “PBM E-score” value was -0.0921.
The value for CCTATCAA was 0.0423; that for CAGCGGCG was 0.34; that for ACTACCCC was -0.343.
The value for GTGAACAA was 0.0755; that for AATCTGTC was -0.0151.
As to ACGATACA, the “PBM E-score” value stood at 0.0157.
The value for ACGCTTGC was -0.232; that for AAAGACGC was 0.132.
With AAACAGGG, the “PBM E-score” value is -0.17.
The value for ACCCCGAA was -0.0431; that for AAGTCCTA was -0.181; that for AGTGCTAG was -0.251.
Under ATCGGAGA stands -0.135.
The value for GAACGGCC was 0.233.
For the sequence AACTAGCT, the “PBM E-score” value was -0.0901.
Consider ATGCGTTC, for which the “PBM E-score” value was determined as 0.0715.
Under AGAGGACG stands -0.0578; under CTACTTGC, 0.0115; under CCTGCCAA, -0.172.
Under CTATACAC stands -0.128.
